Data: paper PMC12820563
This is one part of the list. The list includes weakly bound sequences.

Target: T1, MBP-FoxP3dN (UniProt Q99JB6)
T1 sequence: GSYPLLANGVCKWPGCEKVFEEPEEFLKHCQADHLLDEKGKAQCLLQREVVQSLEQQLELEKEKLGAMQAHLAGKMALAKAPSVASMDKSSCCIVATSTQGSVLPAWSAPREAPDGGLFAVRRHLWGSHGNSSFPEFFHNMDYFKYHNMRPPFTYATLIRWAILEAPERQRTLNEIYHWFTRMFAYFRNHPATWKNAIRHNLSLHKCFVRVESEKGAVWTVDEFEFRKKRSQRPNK
Assay: PD-seq (MBP pull-down with sequencing)
Conditions: 20 mM Tris-HCl pH 7.5, 100 mM NaCl, 1.5 mM MgCl2, 0.4 uM protein, 0.1 uM dsDNA library, 30 min, room temperature, amylose pull-down; high values mean tight binding; double strand, one strand shown

Row | Sequence | binding signal (RPM ratio (pull-down/input))
1 | GATGATTGTTCTCCCAGCTGATGAATTGCGACGGTCGAGTAAACAAATTTTCCTAATCTTTCTGTTCAAGCGCCATCTAC | 0.529
2 | GATGATTGTTCTCCCAGCTGATGAATTAGGGAGGTCGAGTAAACAAATTTTCCTAATCTTTCTGTTCAAGCGCCATCTAC | 0.259
3 | GATGATTGTTCTCCCAGCTGATGAATTGCACTTCTCGAGTAAACAAATTTTCCTAATCTTTCTGTTCAAGCGCCATCTAC | 1.28
4 | GATGATTGTTCTCCCAGCTGATGAATTCAATTTCTCGAGTAAACAAATTTTCCTAATCTTTCTGTTCAAGCGCCATCTAC | 1.07
5 | GATGATTGTTCTCCCAGCTGATGAATTTGTCCTCTCGAGTAAACAAATTTTCCTAATCTTTCTGTTCAAGCGCCATCTAC | 3.28
6 | GATGATTGTTCTCCCAGCTGATGAATTGTTGGAGTCGAGTAAACAAATTTTCCTAATCTTTCTGTTCAAGCGCCATCTAC | 0.449
7 | GATGATTGTTCTCCCAGCTGATGAATTTGCACCATCGAGTAAACAAATTTTCCTAATCTTTCTGTTCAAGCGCCATCTAC | 0.951
8 | GATGATTGTTCTCCCAGCTGATGAATTCATTAGCTCGAGTAAACAAATTTTCCTAATCTTTCTGTTCAAGCGCCATCTAC | 0.706
9 | GATGATTGTTCTCCCAGCTGATGAATTAACAGGGTCGAGTAAACAAATTTTCCTAATCTTTCTGTTCAAGCGCCATCTAC | 0.25
10 | GATGATTGTTCTCCCAGCTGATGAATTGCAGGTATCGAGTAAACAAATTTTCCTAATCTTTCTGTTCAAGCGCCATCTAC | 1.04
11 | GATGATTGTTCTCCCAGCTGATGAATTTGCTCATTCGAGTAAACAAATTTTCCTAATCTTTCTGTTCAAGCGCCATCTAC | 0.572
12 | GATGATTGTTCTCCCAGCTGATGAATTCGAACCATCGAGTAAACAAATTTTCCTAATCTTTCTGTTCAAGCGCCATCTAC | 0.313
13 | GATGATTGTTCTCCCAGCTGATGAATTGGTACTTTCGAGTAAACAAATTTTCCTAATCTTTCTGTTCAAGCGCCATCTAC | 0.472
14 | GATGATTGTTCTCCCAGCTGATGAATTGTTGATTTCGAGTAAACAAATTTTCCTAATCTTTCTGTTCAAGCGCCATCTAC | 5.09
15 | GATGATTGTTCTCCCAGCTGATGAATTGTTGTCATCGAGTAAACAAATTTTCCTAATCTTTCTGTTCAAGCGCCATCTAC | 5.33
16 | GATGATTGTTCTCCCAGCTGATGAATTGTATAAGTCGAGTAAACAAATTTTCCTAATCTTTCTGTTCAAGCGCCATCTAC | 0.686
17 | GATGATTGTTCTCCCAGCTGATGAATTGCACATATCGAGTAAACAAATTTTCCTAATCTTTCTGTTCAAGCGCCATCTAC | 1.19
18 | GATGATTGTTCTCCCAGCTGATGAATTAGAGCGGTCGAGTAAACAAATTTTCCTAATCTTTCTGTTCAAGCGCCATCTAC | 0.238
